For assay [1], the target named is T1, BRC1 fused to the MALTOSE BINDING PROTEIN (Arabidopsis thaliana) (UniProt A1YKT1).
T1 sequence: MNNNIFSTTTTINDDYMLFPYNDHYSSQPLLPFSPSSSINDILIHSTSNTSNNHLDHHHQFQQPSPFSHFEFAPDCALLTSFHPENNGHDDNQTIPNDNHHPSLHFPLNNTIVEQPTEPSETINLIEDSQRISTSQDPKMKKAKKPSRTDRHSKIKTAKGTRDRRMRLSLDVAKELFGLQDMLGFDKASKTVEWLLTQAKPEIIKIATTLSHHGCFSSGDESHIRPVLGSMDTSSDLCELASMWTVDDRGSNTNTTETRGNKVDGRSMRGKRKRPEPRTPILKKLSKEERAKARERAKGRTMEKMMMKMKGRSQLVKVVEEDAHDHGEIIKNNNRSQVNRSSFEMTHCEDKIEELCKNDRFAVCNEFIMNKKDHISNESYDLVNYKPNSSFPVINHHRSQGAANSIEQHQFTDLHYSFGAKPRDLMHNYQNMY
In words: pull-down; MBP-BRC1 or MBP mixed with TIE1-His, Amylose resin, 4°C 3 h; 20 mM Tris-HCl pH 7.4, 200 mM NaCl, 1 mM EDTA; six washes; anti-His immunoblot. (In general: In western blotting, separated proteins are transferred to a membrane and probed.)

Assay [2] addresses T2, BRC1-GFP (Arabidopsis thaliana) (UniProt A1YKT1).
T2 sequence: T1 sequence
As to the kind of experiment: FRET or BRET; acceptor photobleaching FRET (APB-FRET), GFP donor and mCherry acceptor, transient in N. benthamiana leaves. For orientation: BRET reads energy transfer from a luciferase to a nearby fluorophore.

The target of assay [3] is T3, BRC1-mCherry (Arabidopsis thaliana) (UniProt A1YKT1).
T3 sequence: T1 sequence
The assay is described as above.

Assay [4] has as its target T4, cCFP-BRC1 (Arabidopsis thaliana) (UniProt A1YKT1).
T4 sequence: T1 sequence
In words: split reporter; BiFC: nYFP-TIE1 and cCFP-BRC1 co-infiltrated in N. benthamiana leaves; confocal microscopy.

The target in assay [5] is T5, cLUC-BRC1 (Arabidopsis thaliana) (UniProt A1YKT1).
T5 sequence: T1 sequence
In words: split reporter; firefly luciferase complementation imaging (LCI): cLUC-BRC1 and TIE1-nLUC co-infiltrated in N. benthamiana leaves; luciferin, CCD imaging.

For assay [6], the target named is T6, N-terminal 108 amino acid residues of TIE1 fused to GAL4-DBD (Arabidopsis thaliana) (UniProt Q6IDB0).
T6 sequence: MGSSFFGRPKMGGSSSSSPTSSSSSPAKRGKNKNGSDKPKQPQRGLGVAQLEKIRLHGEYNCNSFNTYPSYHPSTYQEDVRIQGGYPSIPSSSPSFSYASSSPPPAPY
As to the kind of experiment: two-hybrid; bait TIE1(1-108) in pGBKT7-GW, BRC1 fragments and mutants in pGADT7-GW; yeast AH109; medium without Leu, Trp and His with 5 mM 3-AT.

In assay [7] the target is T7, TIE2 (Arabidopsis thaliana) (UniProt Q84X40).
T7 sequence: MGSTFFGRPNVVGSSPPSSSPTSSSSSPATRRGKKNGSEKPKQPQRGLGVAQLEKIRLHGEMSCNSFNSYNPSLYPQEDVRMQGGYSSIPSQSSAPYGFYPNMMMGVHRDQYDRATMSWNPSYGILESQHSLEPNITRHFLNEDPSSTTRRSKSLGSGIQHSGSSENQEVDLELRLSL
In words: two-hybrid; TIE2, TIE3 or TIE4 with BRC1; SD-Leu-Trp-His with 2.5 mM 3-amino-1,2,4 triazole.

Assay [8] addresses T8, TIE4 (Arabidopsis thaliana) (UniProt F4IGU3).
T8 sequence: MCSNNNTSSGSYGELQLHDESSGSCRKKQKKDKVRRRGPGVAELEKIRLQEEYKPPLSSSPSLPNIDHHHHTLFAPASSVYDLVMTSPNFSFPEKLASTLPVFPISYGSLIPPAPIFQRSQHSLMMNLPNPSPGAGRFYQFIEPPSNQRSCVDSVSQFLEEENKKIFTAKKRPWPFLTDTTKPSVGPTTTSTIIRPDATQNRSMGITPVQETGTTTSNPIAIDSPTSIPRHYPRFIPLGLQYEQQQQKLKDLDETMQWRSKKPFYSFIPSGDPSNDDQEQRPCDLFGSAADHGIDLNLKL
The assay is described as above.

Assay [9] has as its target T9, TIE3 (Arabidopsis thaliana) (UniProt Q9SHQ9).
T9 sequence: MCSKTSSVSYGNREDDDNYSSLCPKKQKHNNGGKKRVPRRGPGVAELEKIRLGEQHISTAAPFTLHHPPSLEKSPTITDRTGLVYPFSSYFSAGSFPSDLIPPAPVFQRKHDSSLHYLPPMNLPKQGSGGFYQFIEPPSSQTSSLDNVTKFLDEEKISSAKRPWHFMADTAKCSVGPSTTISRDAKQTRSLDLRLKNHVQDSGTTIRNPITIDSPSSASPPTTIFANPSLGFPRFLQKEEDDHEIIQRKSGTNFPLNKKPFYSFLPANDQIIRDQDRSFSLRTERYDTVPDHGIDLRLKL
The assay is described as above.

The target of assay [10] is T6, N-terminal 108 amino acid residues of TIE1 fused to GAL4-DBD (Arabidopsis thaliana). In words: two-hybrid; bait DBD-TIE1N in pDEST32, preys AD-BRC1/BRC2 in pDEST22; yeast AH109; SD-Leu-Trp-His with 5 mM 3-AT.
Assay [11] shares this target. In words: two-hybrid; yeast two-hybrid screening of an Arabidopsis transcription factor library; bait: N-terminal 108 residues of TIE1.

These are yes or no findings as the source states them, for the method shown. For part of these data: In cells and extracts the contact can be indirect. Some results given as binding are weak or reduced against the parent protein; the word gives no strength. Tags and fused reporters may be left off the sequences shown.

B1: His-tagged TIE1 (protein, UniProt Q6IDB0 1-193)
chain: MGSSFFGRPKMGGSSSSSPTSSSSSPAKRGKNKNGSDKPKQPQRGLGVAQLEKIRLHGEYNCNSFNTYPSYHPSTYQEDVRIQGGYPSIPSSSPSFSYASSSPPPAPYGFHPNMMMNANNDQYERTTIRYGDSQPHRAPSWNPSYGILESQHFVEPNTTRHFLHEDQRNISLGSGIQNFETSEANELDLELRL
With B1, in assay [1], the binding entry is listed as “binds”.

B2: TIE1-mCherry (protein, UniProt Q6IDB0 1-193)
chain: B1 chain
Take B2: the binding result in [2] is listed as “binds”.

B3: TIE1-GFP (protein, UniProt Q6IDB0 1-193)
chain: B1 chain
Consider B3, for which, in [3], the binding result is recorded as “binds”.

B4: nYFP-TIE1 (protein, UniProt Q6IDB0 1-193)
chain: B1 chain
Regarding B4, in assay [4], the binding entry is recorded as “binds”.

B5: TIE1-nLUC (protein, UniProt Q6IDB0 1-193)
chain: B1 chain
Consider B5, for which the binding entry in [5] was “binds”.

B6: TCP domain of BRC1 fused to GAL4-AD (domain or fragment, UniProt A1YKT1 148-206)
chain: RTDRHSKIKTAKGTRDRRMRLSLDVAKELFGLQDMLGFDKASKTVEWLLTQAKPEIIKI
On to B6, for which the binding entry in assay [6] is “binds”.

B7: BRANCHED1 (BRC1) fused to GAL4-AD (protein, UniProt A1YKT1 1-433)
chain: T1 sequence
Regarding B7, the binding entry in assay [6] was “binds”; in [7], “binds”; in [8], “binds”; in assay [9], “no binding”; in assay [10] it was “binds”; in assay [11] it was “binds”.

These data come from PMC5884558.
